Data as given in PubChem BioAssay AID652104 (National Center for Advancing Translational Sciences (NCATS), 2013).
The campaign covered roughly 410,000 compounds. About 7,200 (1.8%) were called active. The shares of active, inactive and inconclusive entries below differ from those in the screen. Calls come from the whole dose curve; as a rule, active = well fitted activation curve with a large enough effect; inconclusive = small, poorly fitted or top-dose-only effect, or another doubt; inactive = no such curve, though single readings can be large or run the other way. No potency is given beside an inconclusive call; the fits are too rough.
Potency is the fitted concentration of half-maximal effect; tags give direction and shape of the fitted curve.

Assay: qHTS of TDP-43 Inhibitors; note: nearly all actives have a fitted effect of over 50% in size
Details: TDP-43 expressing yeast growth rescue, BacTiter-Glo, 24 h; series mostly up to 46.1 µM
Outline: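 Growth rescue of TDP-43-toxic yeast measured as ATP luminescence (BacTiter-Glo). Cells grown to mid-log in raffinose, induced in galactose at OD600=0.02, exposed to compound 24 hr at 30 deg C.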
In the case of Cc1ccc(Oc2cc(-n3nc(C)cc3C)ncn2)cc1, the Potency is reported as inconclusive [activator, partial curve]. For Clc1ccc(CSc2nnc(Cn3cnc4ccccc43)o2)cc1, the Potency was inconclusive [activator, single point]. With Cc1ccc(N/N=C/c2cccnc2)cc1 the Potency was inconclusive [activator, full curve]. In the case of CC(C)OCCCNC(=O)Cn1c(-c2cccs2)cc2cc(F)ccc21, the Potency is reported as inconclusive [activator, partial curve]. For S=c1nc2ccccc2c2nc(-c3ccccc3Cl)[nH]n12, the Potency was inconclusive [activator, partial curve]. In the case of COc1ccc(/C(O)=C2/C(=O)C(=O)N(c3nc(C)c(C)s3)C2c2ccco2)cc1 (stereo not drawn), the Potency is reported as inconclusive [activator, partial curve]. In the case of O=C(NCCCn1ccnc1)/C(=C\c1ccc(Br)cc1)NC(=O)c1ccccc1, the Potency is reported as inconclusive [activator, single point]. For O=C(Cc1cccc(C(F)(F)F)c1)Nc1ccccc1N1CCCC1, the Potency was inconclusive [activator, partial curve]. In the case of CCOc1cc(C(=O)N2CC(=O)Nc3ccc(F)cc3C2c2ccccc2)cc(OCC)c1OCC (stereo not drawn), the Potency is reported as “inactive”. With Cn1c(=O)c(Nc2ccc(Cl)cc2)c2c3c(cccc31)C(=O)c1ccccc1-2 the Potency was “inactive”. In the case of Cc1cccc(Oc2nc(-c3ccncc3)nc3ccccc23)c1, the Potency is reported as inconclusive [activator, single point]. For CCC(=O)N1N=C(c2cccs2)CC1c1ccc(OC)cc1 (stereo not drawn), the Potency was inconclusive [activator, single point]. With O=C(Cc1ccc(Cl)cc1)N1CCN(c2ccccc2)CC1 the Potency was inconclusive [activator, partial curve]. With CCOc1ccc(CCNC(=O)C2CC(=O)N(CCc3ccc(OC)c(OC)c3)C2)cc1OCC (stereo not drawn) the Potency was inconclusive [activator, single point]. For CCN(C(=O)C1CCCN(c2nc(-c3ccc(OC)cc3)no2)C1)c1ccc(OC)cc1 (stereo not drawn), the Potency was active: 22.4 µM. In the case of COc1ccc(-c2noc(CNC(=O)c3ccc(OC)cc3OC)n2)cc1, the Potency is reported as “inactive”. For COc1ccc(-c2sc3ccc(N4CCOCC4)cc3c2C#CCO)cc1, the Potency was active: 14.1 µM. In the case of O=C(N/N=C/c1ccco1)c1cc(-c2cccc(Br)c2)nc2ccccc12, the Potency is reported as inconclusive [activator, partial curve]. In the case of O=C1[C@H]2[C@@H](c3ccc(C(F)(F)F)cc3)N[C@]3(CCCN(Cc4ccc(Cl)cc4)C3=O)[C@H]2C(=O)N1Cc1ccccc1, the Potency is reported as inconclusive [activator, single point]. With Cc1ccc(NC(=S)N/N=C/c2ccc(OCCC(C)C)cc2)c(C)c1 the Potency was inconclusive [activator, partial curve]. In the case of CCOC(=O)Cc1csc(NC(=O)/C=C/c2ccc(Br)o2)n1, the Potency is reported as “inactive”. With CN(C)c1cccc(C(=O)NCCCSc2ccccc2)c1 the Potency was inconclusive [activator, single point]. In the case of CCN(CC)CCCNC(=O)c1ccc2c(c1)NC(=O)C(CS(=O)(=O)Cc1ccc(F)cc1Cl)N2 (stereo not drawn), the Potency is reported as “inactive”. With O=c1sc2ccccc2n1CCCOc1ccccc1 the Potency was inconclusive [activator, single point]. With Cc1ccc(O)c(NC(=O)c2cc([N+](=O)[O-])ccc2Cl)c1 the Potency was inconclusive [activator, single point]. In the case of O=C(NCCc1c[nH]c2ccccc12)c1cccc(Br)c1, the Potency is reported as inconclusive [activator, single point]. In the case of CC(C)c1ccc(O)c(NC(=S)NC(=O)c2ccc3c(c2)OCO3)c1, the Potency is reported as inconclusive [activator, full curve]. For O=C(NNC(=S)NC(=O)c1ccco1)c1ccc(F)cc1, the Potency was inconclusive [activator, full curve]. In the case of COc1cccc(N2CCN(C(=O)CCC(=O)c3ccc(Cl)s3)CC2)c1, the Potency is reported as inconclusive [activator, partial curve]. With Cc1cc(C)cc(NC(=O)C2CCCN(c3nnc(-n4c(C)ccc4C)s3)C2)c1 (stereo not drawn) the Potency was “inactive”. For Cc1ccc(S(=O)(=O)N(C)C)cc1NC(=O)CSc1nc2ncc(Cl)cc2[nH]1, the Potency was “inactive”. For CN1CCN(c2ccc(-c3nc(-c4ccccc4)no3)cc2[N+](=O)[O-])CC1, the Potency was “inactive”. With O=C(NC(c1ccccc1)c1ccccc1)C1CCCC1 the Potency was inconclusive [activator, partial curve, poor fit]. For O=C(NCC1CCCO1)c1ccc(CS(=O)(=O)c2c(Cl)cccc2Cl)o1 (stereo not drawn), the Potency was inconclusive [activator, partial curve]. For COc1ccc(NC(=O)Cn2ncc3c4ccccc4n(Cc4ccccc4)c3c2=O)cc1OC, the Potency was inconclusive [activator, full curve, poor fit]. With Cc1c(Cl)cccc1NC(=O)c1cc(C2CC2)on1 the Potency was inconclusive [activator, partial curve]. With Clc1ccc(-c2noc(CSc3nnc(-c4ccncc4)n3-c3ccccc3)n2)cc1 the Potency was “inactive”. With COc1ccccc1CSc1nc2n(n1)C(c1ccccc1)C(C(=O)Nc1ccc(C)cc1)=C(C)N2 (stereo not drawn) the Potency was “inactive”. For COc1cc(/C=N/Nc2nc(C)cc(C)n2)ccc1OC(=O)c1ccco1, the Potency was inconclusive [activator, partial curve, poor fit]. With O=C(Nc1ccccc1Cl)c1cc(C2CCCN(C(=O)CCc3ccccc3)C2)on1 (stereo not drawn) the Potency was inconclusive [activator, single point]. For Cc1ccc(OCc2nc(C#N)c(NCc3ccco3)o2)cc1, the Potency was active: 11.2 µM. In the case of COc1ccc(N2CC(=O)N(c3ccccc3)C2=S)cc1, the Potency is reported as inconclusive [activator, partial curve, poor fit]. With COc1cc2c(cc1OC)CN(c1ccc([N+](=O)[O-])cc1Cl)CC2 the Potency was inconclusive [activator, single point]. In the case of Cc1nc2nc(SCC(=O)NCCc3ccc(Cl)cc3)nn2c(C)c1Cc1c(F)cccc1Cl, the Potency is reported as “inactive”. With COc1cccc(Nc2nc(-c3ccc(O)cc3)cs2)c1 the Potency was inconclusive [activator, single point]. In the case of CCCCN=C1NN=C(c2ccc(C)c(C)c2)CS1, the Potency is reported as active: 14.1 µM. In the case of COc1ccc(-n2cnc3cc(C(=O)NCCC4=CCCCC4)ccc32)cc1, the Potency is reported as inconclusive [activator, single point]. In the case of Cc1nn(CCO)c(C)c1Oc1ccccc1O, the Potency is reported as inconclusive [activator, full curve, poor fit]. For Cc1cc2nc(C)n(CCCNC(=O)Nc3ccccc3)c2cc1C, the Potency was inconclusive [activator, full curve]. For Cc1ccc(-c2n[nH]c(=O)c3ccccc23)c(C)c1, the Potency was inconclusive [activator, partial curve]. For BrC(=C\c1ccccc1)/C=N/Nc1nc(N2CCOCC2)nc(N2CCOCC2)n1, the Potency was inconclusive [activator, single point]. For COc1ccccc1CC(=O)O/N=C(\N)c1ccccn1, the Potency was inconclusive [activator, partial curve]. In the case of CCOC(=O)c1ccc(NC(=O)c2cc(F)c(F)cc2Cl)cc1, the Potency is reported as inconclusive [activator, full curve, poor fit]. With O=C(CCCC(=O)c1ccccc1)Nc1ccc(F)cc1 the Potency was active: 5.62 µM. In the case of O=C(c1ccco1)N1CCN(C(=O)c2cc3c(s2)-c2ccccc2OC3)CC1, the Potency is reported as inconclusive [activator, single point]. In the case of CCCN(CCC)C(=O)CSc1nc2ccccc2c(=O)n1C1CCCC1, the Potency is reported as inconclusive [activator, single point]. With CC(=O)N1CCc2cc(CNS(=O)(=O)c3ccccc3C(F)(F)F)ccc21 the Potency was “inactive”. For CCc1nn(CC(=O)NCC(C)c2ccccc2)c(=O)c2cc3c(OC)cccc3n12 (stereo not drawn), the Potency was “inactive”. With COC(=O)c1ccccc1NC(=O)C1CCCN(C(=O)c2cnn(-c3ccc(F)cc3)c2-n2cccc2)C1 (stereo not drawn) the Potency was active: 35.5 µM. With CCOC(=O)/C=C(\C)N1N=C(c2ccccc2)CC1c1ccccc1 (stereo not drawn) the Potency was inconclusive [activator, partial curve]. In the case of Cc1ccccc1CNC(=O)c1cc2ccccc2o1, the Potency is reported as inconclusive [activator, partial curve]. In the case of COc1ccc(NC(=O)CC(=O)Nc2ccc(OC)cc2OC)c(OC)c1, the Potency is reported as inconclusive [activator, single point]. In the case of C=CCC(Nc1ccccc1)C12C=CC(O1)C(C(=O)OC)=C2C(=O)OC (stereo not drawn), the Potency is reported as inconclusive [activator, partial curve]. With O=C(COc1ccc(F)cc1)NCc1ccc2c(c1)CCN2C(=O)c1ccc(F)cc1 the Potency was “inactive”. For O=C(Nc1ccc(F)c(Cl)c1)C1CCN(c2ncccn2)CC1, the Potency was inconclusive [activator, partial curve, poor fit]. For COc1cc([N+](=O)[O-])ccc1N1C(=O)CC(Sc2nccc(C)n2)C1=O (stereo not drawn), the Potency was inconclusive [activator, partial curve]. With CC(C)CN1C(=O)/C(=C/c2ccco2)NC1=S the Potency was inconclusive [activator, partial curve]. In the case of O=C1Nc2ccc(Br)cc2/C1=C/C(=O)c1ccc2c(c1)OCO2, the Potency is reported as “inactive”.
